Measurements reported in PubChem BioAssay AID504332 (National Center for Advancing Translational Sciences (NCATS), 2011).
Out of some 350,000 compounds screened, about 31,000 (8.9%) were called active. The shares of active, inactive and inconclusive entries below differ from those in the screen. Calls come from the whole dose curve; as a rule, active = well fitted inhibition curve with a large enough effect; inconclusive = small, poorly fitted or top-dose-only effect; inactive = no such curve, though single readings can be large or run the other way. Potencies beside an inconclusive call are fits to weak or partial responses and may not hold up.

Target: Histone-lysine N-methyltransferase EHMT2 (Homo sapiens) (UniProt Q96KQ7)
Chain of UniProt Q96KQ7 (Q96KQ7 whole entry, looked up): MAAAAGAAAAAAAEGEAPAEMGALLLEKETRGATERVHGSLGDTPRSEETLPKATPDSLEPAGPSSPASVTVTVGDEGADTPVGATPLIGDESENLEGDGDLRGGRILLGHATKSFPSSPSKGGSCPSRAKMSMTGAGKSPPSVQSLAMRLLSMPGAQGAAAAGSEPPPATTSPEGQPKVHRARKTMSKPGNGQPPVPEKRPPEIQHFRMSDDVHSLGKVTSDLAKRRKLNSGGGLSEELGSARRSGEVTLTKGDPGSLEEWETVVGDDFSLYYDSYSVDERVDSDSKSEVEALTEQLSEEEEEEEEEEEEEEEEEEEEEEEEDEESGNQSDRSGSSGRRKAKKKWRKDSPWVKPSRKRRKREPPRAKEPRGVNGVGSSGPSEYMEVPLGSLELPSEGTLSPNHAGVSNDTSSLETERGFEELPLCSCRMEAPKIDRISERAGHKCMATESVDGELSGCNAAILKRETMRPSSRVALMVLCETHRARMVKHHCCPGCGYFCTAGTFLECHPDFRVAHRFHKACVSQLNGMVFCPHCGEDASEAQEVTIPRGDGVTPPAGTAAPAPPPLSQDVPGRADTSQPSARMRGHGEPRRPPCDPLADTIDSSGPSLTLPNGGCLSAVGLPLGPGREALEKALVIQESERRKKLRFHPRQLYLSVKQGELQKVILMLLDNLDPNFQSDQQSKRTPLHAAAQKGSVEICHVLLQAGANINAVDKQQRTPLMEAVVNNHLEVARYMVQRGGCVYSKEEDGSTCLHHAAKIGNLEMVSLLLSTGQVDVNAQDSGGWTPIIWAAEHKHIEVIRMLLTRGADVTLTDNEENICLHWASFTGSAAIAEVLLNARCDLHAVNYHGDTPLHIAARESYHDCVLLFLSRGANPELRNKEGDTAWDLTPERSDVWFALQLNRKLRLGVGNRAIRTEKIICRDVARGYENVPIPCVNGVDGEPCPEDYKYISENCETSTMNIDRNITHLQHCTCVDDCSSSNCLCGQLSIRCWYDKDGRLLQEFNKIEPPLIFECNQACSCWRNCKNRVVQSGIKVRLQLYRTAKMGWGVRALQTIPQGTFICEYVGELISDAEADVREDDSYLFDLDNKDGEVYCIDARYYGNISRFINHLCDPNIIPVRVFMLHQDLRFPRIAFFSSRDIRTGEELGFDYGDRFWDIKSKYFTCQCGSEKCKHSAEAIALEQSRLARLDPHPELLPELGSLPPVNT
Experiment: qHTS Assay for Inhibitors of Histone Lysine Methyltransferase G9a; note: nearly all actives have a fitted effect of over 75% in size
Details: G9a H3K9 monomethylation, AlphaScreen, 2 h; activity, negative = inhibition: at 59 µM (top of the series) unless noted
Procedure, shortened: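 AlphaScreen read-out: biotin-H3K9 peptide (500 nM) methylation by 20 nM enzyme with 20 uM SAM, 2 h at room temperature after 15 min compound preincubation; anti-monomethyl H3K9 antibody plus donor/acceptor beads, 10 min dark.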
% is set by controls: 0 for no effect and ±100 for the full control effect; potency is the fitted concentration of half-maximal effect; tags give direction and shape of the fitted curve.

Row | Structure (SMILES) | Potency | activity, negative = inhibition
1 | COc1cc(NC(=O)c2cc(OC)c(OC)c(OC)c2)ccc1NC(=O)c1cccs1 | inactive | –
2 | O=C(Nc1cccnc1)/C(N=Nc1cccnc1)=C(\O)c1ccccc1 | inactive | –
3 | CCc1nn(CC(=O)Nc2c(C)cc(C)cc2C)c(=O)c2cc3sccc3n12 | inconclusive: 0.282 µM [inhibitor, partial curve, poor fit] | –
4 | O=C(CCS(=O)(=O)c1ccc(Br)cc1)NCc1ccc(F)cc1 | – | inconclusive: -102% [inhibitor]
5 | Cc1ccc(N2C(=O)CSC2=S)cc1C | inconclusive: 50.1 µM [inhibitor, partial curve] | –
6 | Cc1cc(NC(=O)CSc2ncnc3sccc23)no1 | inactive | –
7 | Cc1nc(C(=O)N2CCCC(Nc3ccc(C)c(C)c3)C2)cs1 (centres undefined) | inconclusive: 17.8 µM [inhibitor, partial curve, poor fit] | –
8 | CCc1cc(S(=O)(=O)N2CCN(C(=O)c3ccco3)CC2)ccc1OC | inconclusive: 25.1 µM [inhibitor, partial curve, poor fit] | –
9 | CCOC(=O)c1ccc(C(=S)N2CCCC2)cc1 | active: 10 µM | –
10 | O=C(NCc1cccs1)c1ccc(CSc2nc3ccncc3n2Cc2cccc(F)c2)cc1 | inconclusive: 31.6 µM [inhibitor, partial curve, poor fit] | –
11 | O=C(NCCc1ccc(Cl)cc1)c1cnc2n(c1=O)CCS2 | active: 44.7 µM | –
12 | COc1ccc2ccccc2c1C(=O)/C=C\c1ccoc1 | active: 44.7 µM | –
13 | CN1CCC(=C2c3ccccc3C=Cc3ccccc32)CC1 | inactive | –
14 | CC1CCCN(C(=S)Nc2ccc(F)cc2)C1 (centres undefined) | inactive | –
15 | COc1ccc([C@H]2CC(=O)C=C(c3cccc(C(C)C)c3)C2)cc1 | – | inactive: 0.632% [at 0.501 µM]
16 | COc1cccc(CSc2nc3cc(OC)c(OC)cc3c3nc(CCn4nc(C)cc4C)nn23)c1 | inactive | –
17 | O=C(Nc1cccc(-c2nnc(-c3ccccc3)o2)c1)C1CCCO1 (centres undefined) | inconclusive: 0.708 µM [inhibitor, full curve, poor fit] | –
18 | COc1cc2ccccc2cc1C(=O)OCC(=O)N(C)c1c(N)n(Cc2ccccc2)c(=O)[nH]c1=O | inconclusive: 50.1 µM [inhibitor, partial curve, poor fit] | –
19 | CCC(=O)NCc1c(C)c(C)n(Cc2ccccc2)c1-n1cccc1 | inconclusive: 44.7 µM [inhibitor, partial curve] | –
20 | O=C1CC(c2ccccc2)=NN1c1ccc([N+](=O)[O-])cc1 | active: 39.8 µM | –
21 | CCC(C)(C)n1nnnc1C(c1ccc(O)c(OC)c1)N1CCc2ccccc2C1 (centres undefined) | inconclusive: 0.562 µM [inhibitor, full curve, poor fit] | –
22 | Cc1ccc(S(=O)(=O)N/N=C/c2cccc([N+](=O)[O-])c2)cc1 | inconclusive: 7.94 µM [inhibitor, full curve, poor fit] | –
23 | S=c1[nH]nc(-c2ccccn2)n1/N=C/c1c(Cl)cccc1Cl | active: 1.78 µM | –

Row | Structure (SMILES) | Potency | activity, negative = inhibition
24 | CN(C)C(CNC(=O)CCCc1c[nH]c2ccccc12)c1ccco1 (centres undefined) | inconclusive: 28.2 µM [inhibitor, single point] | –
25 | CCN(CC)c1ccc(-c2nc3cnccn3c2NC2CCCC2)cc1 | active: 50.1 µM | –
26 | CCn1c(=O)cc(N2CCCCC2)[nH]c1=O | – | inactive: -5.14% [at 12.7 µM]
27 | CCOC(=O)Cn1c2ccc(F)cc2c2nc(C)sc21 | inactive | –
28 | Cc1cc(/C=C2\SC(=S)NC2=O)c(C)n1C1CC1 | inconclusive: 12.6 µM [inhibitor, partial curve, poor fit] | –
29 | Cc1ccc2c(c1)CC1(CN2C)C(=O)OC2(CCCCC2)OC1=O | active: 50.1 µM | –
30 | CCOc1ccc(OCC)c(NC(=O)CC2Oc3ccc(C)cc3NC2=O)c1 (centres undefined) | inconclusive: 89.1 µM [inhibitor, single point] | –
31 | COC(=O)c1c(C)oc2c1cc(NS(=O)(=O)c1c(C)cc(C)cc1C)c1ccccc12 | inconclusive: 0.631 µM [inhibitor, full curve, poor fit] | –
32 | COc1ccc(-c2csc(NC(=O)CCN3C(=O)C4CC=CCC4C3=O)n2)cc1OC (centres undefined) | inconclusive: 79.4 µM [inhibitor, partial curve] | –
33 | Nc1nc(Cl)nc2c1ncn2[C@@H]1O[C@H](CO)[C@H](O)C1F (some centres undefined) | inactive | –
34 | COc1ccc(C(CNC(=O)c2cncc(Br)c2)N(C)C)cc1 (centres undefined) | inconclusive: 89.1 µM [inhibitor, partial curve, poor fit] | –
35 | O=C(c1cnccn1)N1CCC2(CCCN(c3ccncc3)C2)CC1 | – | inactive: -0.708% [at 12.7 µM]
36 | CC(OC(=O)c1cccc(-n2cnnn2)c1)C(=O)Nc1ccc(N(C)C)cc1 (centres undefined) | active: 7.08 µM | –
37 | COC(=O)c1ccc(C2NC(C(=O)O)CS2)cc1 (centres undefined) | active: 3.55 µM | –
38 | CC(C)Oc1ccc(C(=O)Nc2ccc3oc(-c4ccncc4)nc3c2)cc1 | inconclusive: 8.91 µM [inhibitor, full curve, poor fit] | –
39 | O=C(O)c1c2c(nc3ccccc13)CCCCC2 | inconclusive: 31.6 µM [inhibitor, single point] | –
40 | Cc1ccc(N(Cc2cc(=O)[nH]c3ccccc23)C(=O)C(C)C)c(C)c1 | inconclusive: 79.4 µM [inhibitor, single point] | –
41 | Cc1ccc(CCNC(=O)c2nnc(Cc3cccc(F)c3)o2)cc1 | inconclusive: 25.1 µM [inhibitor, partial curve, poor fit] | –
42 | COc1ccc(N2CCCn3c2nc2c3c(=O)n(CCCc3ccccc3)c(=O)n2C)cc1 | active: 10 µM | –
43 | COc1ccc(-c2cn(CCCOCc3ccccc3)nn2)cc1 | inconclusive: 70.8 µM [inhibitor, partial curve, poor fit] | –
44 | CCCC(NC(=O)CCl)c1ccccc1 (centres undefined) | inconclusive: 39.8 µM [inhibitor, partial curve, poor fit] | –
45 | COc1ccc(C(c2c(C)n(C)n(-c3ccccc3)c2=O)c2c(C)n(C)n(-c3ccccc3)c2=O)cc1OC | inconclusive: 89.1 µM [inhibitor, single point] | –
46 | CCOC(=O)C1=C(c2ccccc2)OC(N)=C(C#N)C1c1ccc(Cl)s1 (centres undefined) | inconclusive: 79.4 µM [inhibitor, single point] | –

Row | Structure (SMILES) | Potency | activity, negative = inhibition
47 | Cn1c(=O)c2c(nc(NCCc3ccccc3)n2Cc2cccc(Br)c2)n(C)c1=O | inconclusive: 3.16 µM [inhibitor, single point] | –
48 | O=c1n(Cc2ccc(F)cc2Cl)c2ccccc2c2nc(-c3ccccc3)nn12 | inactive | –
49 | CCN(CC)CCn1c(=S)[nH]c2cc(C(=O)N3CC=C(c4ccccc4)CC3)ccc2c1=O | inconclusive: 39.8 µM [inhibitor, partial curve, poor fit] | –
50 | O=S(=O)(NC[C@@H]1CCC[C@H](CNS(=O)(=O)c2c(F)cccc2F)C1)c1ccc2c(c1)OCCO2 | – | inactive: 6.52% [at 12.7 µM]
51 | CCn1c(CCC(=O)Nc2nc3c(s2)CCCC3)nc2cc(S(=O)(=O)N(C)C)ccc21 | – | inconclusive: -67.1% [inhibitor]
52 | COc1ccc(C(CC(=O)NC(C)c2ccc(-c3ccccc3)cc2)NC(C)=O)cc1 (centres undefined) | inactive | –
53 | Fc1ccccc1CNc1nc(-c2cccnc2)nc2ccccc12 | inconclusive: 89.1 µM [inhibitor, single point] | –
54 | CCc1ccc(C(=O)CN2C(=O)NC3(CCOc4ccccc43)C2=O)s1 (centres undefined) | inconclusive: 35.5 µM [inhibitor, single point] | –
55 | COCCn1c(CNC(=O)c2cc([N+](=O)[O-])ccc2Cl)nc2cccnc21 | inactive | –
56 | CCCCN(CCNP(=O)(OCC)OCC)CP(=O)(OCC)OCC | – | inconclusive: -58.7% [inhibitor] [at 12.7 µM]
57 | CC(=O)Oc1ccc(/C=N/NC(=O)C2CCCN2S(=O)(=O)c2ccc(Cl)cc2)cc1 (centres undefined) | inconclusive: 31.6 µM [inhibitor, single point] | –
58 | Cc1cc(-c2ccc(N=Nc3ccc4c(S(=O)(=O)O)cc(S(=O)(=O)O)c(N)c4c3O)c(C)c2)ccc1N=Nc1ccc2c(S(=O)(=O)O)cc(S(=O)(=O)O)c(N)c2c1O | inconclusive: 0.794 µM [inhibitor, full curve, poor fit] | –
59 | Cc1ccc(/C=N/NC(=O)c2nnn(-c3nonc3N)c2C)o1 | inconclusive: 89.1 µM [inhibitor, single point] | –
60 | C(=C\c1ccccc1)/C=N/N1CCN(Cc2ccccc2)CC1 | active: 44.7 µM | –
61 | CN(C)S(=O)(=O)c1ccc(NC(=O)C2CC(=O)N(Cc3ccccc3)C2)cc1 (centres undefined) | inactive | –
62 | O=C1CS/C(=N\N=C\c2ccco2)N1c1ccccc1 | inconclusive: 79.4 µM [inhibitor, single point] | –
63 | COC(=O)c1c(N)sc2c1CC(C)(C)OC2 | inconclusive: 5.62 µM [inhibitor, full curve, poor fit] | –
64 | CCOc1ccc(N2C(=O)CC(NC3CCCCNC3=O)C2=O)cc1 (centres undefined) | active: 7.94 µM | –
65 | COc1ccc(NC(=O)Cn2cnc3c(nc4n3CCCCC4)c2=O)c(OC)c1 | inactive | –
66 | C[C@H](NC(=O)c1ccco1)C(=O)NCCc1ccc(S(N)(=O)=O)cc1 | inconclusive: 89.1 µM [inhibitor, single point] | –
67 | CC(=O)Nc1ccc(NCN2C(=O)C3C4CCC(C4)C3C2=O)cc1 (centres undefined) | inactive | –
68 | CCOc1ccc(-c2nc(C#N)c(NCc3ccc4c(c3)OCO4)o2)cc1 | inconclusive: 79.4 µM [inhibitor, single point] | –
69 | Cc1oc(-c2ccccc2Cl)nc1CN1CCCCC1c1cccnc1 (centres undefined) | inconclusive: 50.1 µM [inhibitor, partial curve, poor fit] | –
